From US20200140512A1 (Xencor, published 2020)

Molecular target: PD-1 on activated human T cells (anti-CD3-stimulated human PBMCs) (human, UniProt Q15116 25-288)
Test: cell-based or functional assay

B1: XENP30046 ([NC]PD-1-targeted IL-15/Rα-Fc comprising mAb C_H1_L1.1 and IL-15(N4D/N65D) variant) (Fc fusion)
chain: ITCPPPMSVEHADIWVKSYSLYSRERYICNSGFKRKAGTSSLTECVLNKATNVAHWTTPSLKCIRGGGGSGGGGSGGGGSGGGGSGGGGS[in this place about 120 residues]EPKSSDKTHTCPPCPAPPVAGPSVFLFPPKPKDTLMISRTPEVTCVVVDVKHEDPEVKFNWYVDGVEVHNAKTKPREEEYNSTYRVVSVLTVLHQDWLNGKEYKCKVSNKALPAPIEKTISKAKGQPREPQVYTLPPSREEMTKNQVSLTCDVSGFYPSDIAVEWESDGQPENNYKTTPPVLDSDGSFFLYSKLTVDKSRWEQGDVFSCSVMHEALHNHYTQKSLSLSPGK
heavy: EVQLVESGGGLVQPGGSLRLSCAASGFTFSSFGMHWVRQAPGKGLEWVSYISSGSSIIYYADSVKGRFTISRDNAKNSLYLQMNSLRAEDTAVYYCARGGRLVWSPDYWGQGTLVTVSSASTKGPSVFPLAPSSKSTSGGTAALGCLVKDYFPEPVTVSWNSGALTSGVHTFPAVLQSSGLYSLSSVVTVPSSSLGTQTYICNVNHKPSNTKVDKKVEPKSCDKTHTCPPCPAPPVAGPSVFLFPPKPKDTLMISRTPEVTCVVVDVKHEDPEVKFNWYVDGVEVHNAKTKPREEQYNSTYRVVSVLTVLHQDWLNGKEYKCKVSNKALPAPIEKTISKAKGQPREPQVYTLPPSREQMTKNQVKLTCLVKGFYPSDIAVEWESNGQPENNYKTTPPVLDSDGSFFLYSKLTVDKSRWQQGNVFSCSVMHEALHNHYTQKSLSLSPGK
light: DIVMTQSPDSLAVSLGERATINCKSSQSLLHSGNQKNYLTWYQQKPGQPPKLLIYWASTRESGVPDRFTGSGSGTDFTLTISSLQAEDVAVYYCQNDYSYPFTFGSGTKLEIKRTVAAPSVFIFPPSDEQLKSGTASVVCLLNNFYPREAKVQWKVDNALQSGNSQESVTEQDSKDSTYSLSSTLTLSKADYEKHKVYACEVTHQGLSSPVTKSFNRGEC
proliferation of CD8+ and CD4+ T cells (CFSE dilution), against XENP28543: 2 fold
